In all, about 390,000 compounds went through this assay and about 910 (0.23%) were called active. Not shown: some 5% with an inconclusive outcome. Calls come from the whole dose curve; as a rule, active = well fitted inhibition curve with a large enough effect; inconclusive = small, poorly fitted or top-dose-only effect; inactive = no such curve, though single readings can be large or run the other way. The entries are a selection whose mix differs from that of the whole data set.

The source of these data is PubChem BioAssay AID743255 (National Center for Advancing Translational Sciences (NCATS), 2014).
% is set by controls: 0 for no effect and ±100 for the full control effect; potency is the fitted concentration of half-maximal effect.

Chain of UniProt O94782 (O94782 whole entry, looked up): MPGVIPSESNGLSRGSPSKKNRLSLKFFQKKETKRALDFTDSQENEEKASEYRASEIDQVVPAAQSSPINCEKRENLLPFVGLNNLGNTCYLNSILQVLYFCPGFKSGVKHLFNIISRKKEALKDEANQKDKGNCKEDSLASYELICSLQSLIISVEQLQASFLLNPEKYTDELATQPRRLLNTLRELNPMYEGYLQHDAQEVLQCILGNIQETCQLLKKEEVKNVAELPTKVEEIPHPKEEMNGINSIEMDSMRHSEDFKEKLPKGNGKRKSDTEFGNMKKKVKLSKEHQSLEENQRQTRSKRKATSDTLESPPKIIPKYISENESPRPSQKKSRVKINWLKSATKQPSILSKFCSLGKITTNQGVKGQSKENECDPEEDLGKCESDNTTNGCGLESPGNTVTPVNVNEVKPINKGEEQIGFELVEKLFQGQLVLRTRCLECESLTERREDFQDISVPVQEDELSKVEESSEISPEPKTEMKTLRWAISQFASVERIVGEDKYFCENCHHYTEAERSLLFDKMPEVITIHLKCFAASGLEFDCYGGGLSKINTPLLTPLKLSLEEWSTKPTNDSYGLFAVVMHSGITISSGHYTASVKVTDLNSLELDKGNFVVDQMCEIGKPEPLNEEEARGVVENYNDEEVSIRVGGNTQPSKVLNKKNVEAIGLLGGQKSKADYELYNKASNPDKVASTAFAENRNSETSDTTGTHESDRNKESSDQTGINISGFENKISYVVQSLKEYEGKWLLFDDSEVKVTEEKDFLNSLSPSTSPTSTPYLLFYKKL

For the experiment, the target named is Ubiquitin carboxyl-terminal hydrolase 1 (Homo sapiens) (UniProt O94782). Kind of experiment: Inhibitors of USP1/UAF1: Primary Screen. Note: nearly all actives have a fitted effect of over 60% in size. The conditions noted are these: recombinant USP1/UAF1, Ub-Rhodamine cleavage fluorescence; series mostly up to 57.1 µM; activity change, negative = inhibition: at the top concentration. The method, boiled down:
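USP1/UAF1 complex at 1 nM was preincubated with compound for 15 min at room temperature, then Ub-Rho substrate (150nM final) was added. Fluorescence (480/540 nm) was read kinetically, 6 reads every 60 seconds.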
As to `CC1Oc2cc3c(-c4c(O)cc(O)c5c(O)c6c(cc45)OC(C)C(C)C6=O)c(O)cc(O)c3c(O)c2C(=O)C1C` (centres undefined), the Potency was active: 12.6 µM.

As to `COc1ccc(CN2C(=O)NC(=O)/C(=C/c3ccc([N+](=O)[O-])s3)C2=O)cc1`, the Potency was active: 35.5 µM.

For `C[C@@H]1C(=O)O[C@H]2CC34[C@H]5C[C@@H](C(C)(C)C)[C@]36[C@@H](OC(=O)[C@@H]6O)O[C@@]4(C(=O)O5)[C@]21O` (some centres undefined), the “activity change, negative = inhibition” value was inactive: 9.34%.

Regarding `C[C@H]1CCC/C=C/C2C[C@H](O)CC2[C@H](O)/C=C/C(=O)O1` (some centres undefined), the “activity change, negative = inhibition” value is inactive: 6.26%.

For `C[C@H]1CN([C@@H](C)CO)C(=O)CCCn2nncc2CO[C@H]1CN(C)C(=O)Oc1cccc2ccccc12`, the “activity change, negative = inhibition” value was inactive: -30.9%.

As to `Cc1ccc(OC(=O)N(C)C[C@@H]2OCc3cnnn3CCCC(=O)N([C@H](C)CO)C[C@H]2C)cc1`, the “activity change, negative = inhibition” value was inactive: -25.7%.

In the case of `CCCCn1c(NC(=O)c2ccco2)c(C(=O)OCC)c2nc3ccccc3nc21`, the Potency was active: 25.1 µM.

For `C[C@]12CC[C@@H](O)C[C@@H]1CC[C@@H]1[C@@H]2CC[C@]2(C)[C@@H](O)CC[C@@H]12`, the “activity change, negative = inhibition” value was inactive: -13.9%.

On to `CC(C)n1c(/C=C/[C@H](O)C[C@H](O)CC(=O)O)c(-c2ccc(F)cc2)c2ccccc21`, for which the “activity change, negative = inhibition” value is inactive: -21.2%.

Take `C[C@]12CCC(=O)C=C1C=CC1C2CC[C@@]2(C)C1CC[C@@H]2O` (some centres undefined): the “activity change, negative = inhibition” value was inactive: -27%.

Regarding `COc1ccc(OC(=O)N(C)C[C@@H]2OCc3cnnn3CCCC(=O)N([C@H](C)CO)C[C@@H]2C)cc1`, the “activity change, negative = inhibition” value is inactive: -9.26%.

Regarding `CN(C)[C@@H]1C(=O)C(C(N)=O)=C(O)[C@@]2(O)C(=O)C3=C(O)c4c(O)ccc(Cl)c4[C@@](C)(O)[C@H]3C[C@@H]12`, the “activity change, negative = inhibition” value is inactive: 9.48%.

For the compound `CN1CCN(c2ccc([N+](=O)[O-])c3no[n+]([O-])c23)CC1`, the “activity change, negative = inhibition” value was inactive: 110%.

Take `C[C@H]1CCC/C=C/[C@@H]2C[C@H](O)C[C@H]2[C@H](O)/C=C/C(=O)O1`: the “activity change, negative = inhibition” value was inactive: 13.2%.

As for `C[C@H]1CCC/C=C/[C@@H]2C[C@H](O)C[C@H]2[C@@H](O)/C=C/C(=O)O1`, the “activity change, negative = inhibition” value is inactive: -20.6%.

For the compound `C[C@]12CCC3C(CC[C@H]4C[C@@H](O)CC[C@]34C)C1CC[C@@H]2O` (some centres undefined), the “activity change, negative = inhibition” value was inactive: -0.833%.

With `CN1C[C@H](C(=O)NC2(C)OC3(O)[C@@H]4CCCN4C(=O)[C@H](Cc4ccccc4)N3C2=O)CC2c3cccc4[nH]cc(c34)C[C@H]21` (some centres undefined), the “activity change, negative = inhibition” value was inactive: -14.9%.

As to `C[C@]12CCC3C(CC[C@H]4C[C@@H](O)CC[C@]34C)C1CCC2=O` (some centres undefined), the “activity change, negative = inhibition” value was inactive: -4.02%.

Take `C[C@]12CC[C@H](O)C[C@@H]1CC[C@H]1[C@H]3CCC(=O)[C@@]3(C)CC[C@@H]12`: the “activity change, negative = inhibition” value was inactive: -10.2%.

As for `C[C@@H]1CN([C@H](C)CO)C(=O)CCCn2cc(nn2)CO[C@H]1CN(C)C(=O)Oc1cccc2ccccc12`, the “activity change, negative = inhibition” value is inactive: -28.4%.

Regarding `CSc1ccc(CN2CCN(C(=O)COc3cccc(C)c3)CC2)cc1`, the “activity change, negative = inhibition” value is inactive: -4.9%.

Regarding `CN1C[C@H](C(=O)N[C@]2(C)O[C@@]3(O)[C@@H]4CCCN4C(=O)[C@H](Cc4ccccc4)N3C2=O)CC2c3cccc4[nH]cc(c34)C[C@H]21` (some centres undefined), the “activity change, negative = inhibition” value is inactive: -23.4%.

In the case of `COc1ccc(OC(=O)N(C)C[C@@H]2OCc3cnnn3CCCC(=O)N([C@H](C)CO)C[C@H]2C)cc1`, the “activity change, negative = inhibition” value is inactive: -0.218%.

`C[C@]12CCC(=O)C[C@H]1CC[C@@H]1[C@@H]2CC[C@]2(C)C(=O)CC[C@@H]12`: the “activity change, negative = inhibition” value is inactive: -3.71%.

Consider `O=c1cccc2n1CC1CNCC2C1` (centres undefined), for which the “activity change, negative = inhibition” value is inactive: -20.4%.

Consider `C[C@@H]1CC2C3CC=C4C[C@@H](O)CC[C@]4(C)C3CC[C@]2(C)[C@H]1O` (some centres undefined), for which the “activity change, negative = inhibition” value is inactive: -7.96%.

Regarding `O=C1N[C@H](Cc2ccccc2)C(=O)N2[C@@H]3[C@H](C[C@@H]12)c1ccccc1N3OOSc1ccccc1`, the “activity change, negative = inhibition” value was inactive: 21.7%.

Turning to `CCN1/C(=C/C=C/C2=[N+](CC)c3ccccc3C2(C)C)C(C)(C)c2ccccc21`, the Potency was active: 25.1 µM.

On to `C[C@]12CC[C@H](O)C[C@@H]1CC[C@@H]1[C@@H]2CC[C@]2(C)C(=O)CC[C@@H]12`, for which the “activity change, negative = inhibition” value is inactive: -10.2%.

For `O=c1[nH]c(=S)n(-c2ccccc2F)c(O)c1C=Nc1ccc(N2CCOCC2)cc1`, the Potency was active: 25.1 µM.

Take `C[C@]12CCC3C(CC[C@H]4C[C@H](O)CC[C@]34C)C1C[C@@H](O)[C@H]2O` (some centres undefined): the “activity change, negative = inhibition” value was inactive: -2.51%.

Regarding `Cn1cc(C(=O)OCC(=O)Nc2ccccc2Cl)c2ccccc21`, the “activity change, negative = inhibition” value was inactive: 211%.

Turning to `O=C1NCCOC(=O)[C@@H](Cc2ccc(F)cc2)CC/C=C/C[C@H]1CC(=O)N(CCO)Cc1ccccc1`, the “activity change, negative = inhibition” value is inactive: -32.1%.

As for `CCOc1ccc(-n2c(O)c(/C=C3\C=Nc4ccccc43)c(=O)[nH]c2=O)cc1`, the “activity change, negative = inhibition” value is inactive: 62.9%.

For the compound `CN1C(=O)NC(=O)/C(=C/c2ccc([N+](=O)[O-])o2)C1=O`, the “activity change, negative = inhibition” value was inactive: -26.3%.

With `C[C@]12CCC3[C@@H](CC[C@H]4C[C@@H](O)CC[C@]34C)C1CCC2=O` (some centres undefined), the “activity change, negative = inhibition” value is inactive: -12.5%.

Take `O=C1CCN(C(=O)CCCn2c(=O)oc3ccccc32)CC1`: the “activity change, negative = inhibition” value was inactive: 80.5%.

For `Cc1ccc(-c2nn3c(C)nnc3c3ccccc23)cc1S(=O)(=O)NCCO`, the “activity change, negative = inhibition” value is inactive: -2.83%.

Take `CN(C)/C=c1\sc2c(C#N)cc(C(=O)c3ccc(Br)cc3)n2c1=O`: the “activity change, negative = inhibition” value is inactive: 134%.

Regarding `CC(C)[C@H](N)C(=O)OCCOCn1cnc2c(=O)[nH]c(N)nc21`, the “activity change, negative = inhibition” value was inactive: 2.77%.

Regarding `NC1=C(Br)C(=O)c2ccccc2C1=O`, the Potency was active: 8.91 µM.

Regarding `CCC1(O)C(=O)OCc2c1cc1n(c2=O)Cc2cc3c(N)cccc3nc2-1` (centres undefined), the “activity change, negative = inhibition” value is inactive: -12.6%.

As to `O=C1NC(=O)C(=Cc2cn(CCOc3ccc4c(c3)OCO4)c3ccccc23)C(=O)N1`, the “activity change, negative = inhibition” value was inactive: 153%.

Take `CCn1c(O)c(C=Nc2ccc(N3CCOCC3)cc2)c(=O)n(CC)c1=S`: the Potency is active: 17.8 µM.

`COc1ccc(C2CC(=O)Nc3cc4c(cc32)OCO4)c(OC)c1` (centres undefined): the “activity change, negative = inhibition” value was inactive: 30.9%.

On to `CC1CCC2[C@@H](C)C(=O)OC3O[C@]4(C)CCC1C32OO4` (some centres undefined), for which the “activity change, negative = inhibition” value was inactive: -12.5%.

Regarding `CC1(C)C(=O)CC[C@]2(C)C3C(=O)C=C4[C@H]5C[C@@](C)(C(=O)O)CC[C@]5(C)CC[C@]4(C)[C@]3(C)CC[C@@H]12` (some centres undefined), the “activity change, negative = inhibition” value was inactive: -31.2%.

For `CN(C)C1C(=O)C(C(N)=O)=C(O)C2(O)C(=O)C3=C(O)c4c(O)cccc4C(C)(O)C3C(O)C12` (centres undefined), the “activity change, negative = inhibition” value was inactive: -20.7%.

For `CN1Cc2c(c(C#N)c(N)n(C)c2=S)CC1(C)C`, the Potency was active: 28.2 µM.

For the compound `COC(=O)C1=COC(C)C2CN3CCC4(C(=O)Nc5ccccc54)C3CC12` (centres undefined), the “activity change, negative = inhibition” value was inactive: -4.54%.

For `Cc1ccc(N2C(=O)NC(=O)/C(=C\c3ccoc3)C2=O)cc1`, the “activity change, negative = inhibition” value was inactive: -30.6%.

As to `C=C1C(=O)O[C@H]2C[C@@H](C)[C@@H]3C=CC(=O)[C@@]3(C)C[C@H]12`, the “activity change, negative = inhibition” value is inactive: 33.4%.

On to `CC1CCC/C=C/C2CC(O)CC2C(O)/C=C/C(=O)O1` (centres undefined), for which the “activity change, negative = inhibition” value is inactive: 3.85%.

Take `CCCCNC(=O)c1c(N)n(Cc2ccc3c(c2)OCO3)c2nc3ccccc3nc12`: the Potency was active: 28.2 µM.

Consider `COC(=O)C1=CO[C@@H](C)[C@@H]2CN3CC[C@@]4(C(=O)Nc5ccccc54)[C@@H]3C[C@H]12`, for which the “activity change, negative = inhibition” value is inactive: -23.9%.

In the case of `C[C@@H]1C(=O)O[C@H]2C[C@@]34[C@H]5C[C@@H](C(C)(C)C)[C@]36[C@@H](OC(=O)[C@@H]6O)O[C@@]4(C(=O)O5)[C@]21O`, the “activity change, negative = inhibition” value is inactive: -6.81%.

As to `COC(=O)C1=CO[C@@H](C)[C@@H]2CN3CC[C@]4(C(=O)Nc5ccccc54)[C@@H]3C[C@H]12`, the “activity change, negative = inhibition” value is inactive: -1.59%.

On to `O=C1NCCOC(=O)[C@H](Cc2ccc(F)cc2)CC/C=C/C[C@H]1CC(=O)N(CCO)Cc1ccccc1`, for which the “activity change, negative = inhibition” value is inactive: -11.9%.

Consider `Oc1ccc2c3c1O[C@H]1c4oc5ccccc5c4C[C@@]4(O)[C@@H](C2)N(CC2CC2)CC[C@]314`, for which the “activity change, negative = inhibition” value is inactive: -28.9%.

`C=CCN1CC[C@]23c4c5ccc(O)c4OC2C(O)CC[C@@]3(O)[C@H]1C5` (some centres undefined): the “activity change, negative = inhibition” value is inactive: -22.9%.

Turning to `CN1C(CC(=O)c2ccccc2)CCCC1CC(O)c1ccccc1` (centres undefined), the “activity change, negative = inhibition” value was inactive: 7.67%.

Take `C[C@H]1COC(=O)[C@@H](Cc2ccc(F)cc2)CC/C=C/C[C@@H](CC(=O)N(CCO)Cc2ccccc2)C(=O)N1`: the “activity change, negative = inhibition” value was inactive: -0.557%.

Consider `O=C1NC(=O)N(c2ccccc2)C(=O)/C1=C\c1ccc([N+](=O)[O-])s1`, for which the Potency was active: 17.8 µM.

As for `Cc1cccc(NC(=O)C2CCCN(S(=O)(=O)c3ccc4c(c3)oc(=O)n4C)C2)c1` (centres undefined), the “activity change, negative = inhibition” value was inactive: -20.9%.
